# The supplement of paper PMC3334620
# Over roughly 33,000 sequences, “E-score (-0.5 to 0.5)” has its median near -0.041; the highest 2% begin near 0.37. This is one part of the list.
# Biological target: T1, Ecm22 (UniProt Q05958)
# T1 sequence: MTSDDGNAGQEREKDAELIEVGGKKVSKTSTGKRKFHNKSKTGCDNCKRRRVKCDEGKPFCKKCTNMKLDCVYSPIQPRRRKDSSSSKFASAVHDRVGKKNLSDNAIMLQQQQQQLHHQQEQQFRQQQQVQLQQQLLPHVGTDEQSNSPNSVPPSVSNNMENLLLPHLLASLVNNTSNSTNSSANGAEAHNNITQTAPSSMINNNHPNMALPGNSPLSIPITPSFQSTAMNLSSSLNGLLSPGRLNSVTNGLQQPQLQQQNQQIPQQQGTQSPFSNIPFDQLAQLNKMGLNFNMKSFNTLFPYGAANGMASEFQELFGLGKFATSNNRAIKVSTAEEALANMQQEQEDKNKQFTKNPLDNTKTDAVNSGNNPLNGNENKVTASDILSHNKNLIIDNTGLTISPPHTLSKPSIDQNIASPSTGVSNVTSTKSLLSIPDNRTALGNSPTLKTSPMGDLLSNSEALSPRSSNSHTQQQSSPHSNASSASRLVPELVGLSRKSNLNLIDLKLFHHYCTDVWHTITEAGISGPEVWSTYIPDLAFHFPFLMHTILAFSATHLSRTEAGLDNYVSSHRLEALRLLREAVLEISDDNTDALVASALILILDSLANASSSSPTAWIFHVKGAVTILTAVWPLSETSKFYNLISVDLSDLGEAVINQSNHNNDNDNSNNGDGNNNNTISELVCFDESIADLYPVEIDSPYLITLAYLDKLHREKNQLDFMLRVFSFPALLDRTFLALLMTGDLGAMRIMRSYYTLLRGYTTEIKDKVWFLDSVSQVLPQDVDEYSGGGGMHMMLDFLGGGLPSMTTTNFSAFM
# Test: PBM E-score (8-mer binding enrichment) (E-score (-0.5 to 0.5)); higher = stronger / more preferred TF binding; most listed sequences are background and not binding sites
# Conditions: protein concentration: 200 nM; construct: GST-full length
# Outline: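 Bound GST-tagged yeast transcription factors, applied at about 100-200 nM to double-stranded universal all-10-mer Agilent arrays, were detected with fluorescent anti-GST. Scans were normalised with masliner. A modified Wilcoxon-Mann-Whitney statistic, the E-score, was assigned to each ungapped eight-base word pooled with its reverse complement by the Universal PBM Analysis Suite.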
row,Sequence,PBM E-score
1,CTAGGGGC,-0.368
2,CTTAAACA,-0.0983
3,CTAGACTA,-0.134
4,GACTGGAC,-0.193
5,ACTACTGG,-0.38
6,ATCGAGGG,-0.0104
7,CTGTCAGC,-0.203
8,CGCAACCC,-0.00304
9,CGAATGCC,0.00653
10,CCTCATCG,0.125
11,ATGCCGCG,0.144
12,CTTTAGTC,-0.289
13,GAGGTAGA,-0.0207
14,ATCAGGCG,-0.158
15,AACCCTTG,-0.0616
16,ATAACCGC,0.0506
17,AATGCACA,0.0613
18,CATCGGAA,0.181
19,AGCTAATA,0.0246
20,ACAGGTCT,0.00866
21,CATAAACA,-0.0236
22,GTGGAAAC,-0.14
23,CTAGGTTA,-0.181
24,GAGTACAC,0.13
25,CGTTTAGC,0.464

row,Sequence,PBM E-score
1,ATTAGCGG,-0.13
2,AAATTGAG,-0.152
3,CCGAGCCC,0.0573
4,CGCCGGTC,-0.0658
5,ATAGTTAA,0.0332
6,GATTGTGA,-0.0615
7,GTTGAGCA,-0.0718
8,GAAAGGAC,0.0471
9,GACAGCTC,-0.036
10,TACTCTCA,-0.0803
11,CGAAGCGC,0.0347
12,GACAGGCC,-0.206
13,GCGGCAGA,-0.171
14,CGAAAGGC,0.0855
15,AGTTTGCC,-0.117
16,AAAATTGA,-0.0823
17,CCCTACCA,-0.0939
18,CTACTGTA,0.0808
19,TGGTCTAA,-0.187
20,AGTTCGCA,0.221
21,ATCGCGAC,0.151
22,AACCGCAT,0.0581
23,CCCAACGG,-0.207
24,AGAGGACA,-0.272
25,ATCTAACC,0.0109

row,Sequence,PBM E-score
1,GTGTCATA,-0.00652
2,CGAAGGCG,0.124
3,AATTGGCT,-0.133
4,ACTAAACT,-0.0221
5,CGTTTAAC,0.465
6,CGAGCTAG,0.138
7,ATGACAAA,-0.159
8,CCTGAGAG,-0.236
9,AAGCCACC,-0.194
10,ACCCGTTC,0.348
11,TATGTGCA,-0.0772
12,CGCTGACG,-0.21
13,TATAAACA,0.112
14,GTCTGCCA,-0.136
15,AATCTGCC,-0.177
16,GTCTCCGA,0.0202
17,ACTGGCCA,-0.206
18,AAATTAAA,0.0157
19,ACGAAACA,0.335
20,GCATCAGA,-0.18
21,AACGTCTT,0.054
22,GTACCCTA,0.128
23,AATTCTCT,-0.0437
24,GTCACAAA,0.0841
25,CCCCGGAG,-0.084

row,Sequence,PBM E-score
1,GCCGCTCC,0.0214
2,ACACCTGT,-0.0395
3,CAGTTTGA,-0.217
4,CGCTGCAA,0.0581
5,AAGGCGCT,-0.145
6,CCGTTCTC,0.0947
7,CGCAGCCG,-0.0691
8,AACTGCTG,-0.215
9,AGAGGGTA,-0.0925
10,AAATAGGA,-0.091
11,GATAATTA,0.0574
12,CACTGACG,-0.0105
13,CGCTCAAA,0.0592
14,CGTTAGCC,-0.139
15,TAAGCGGA,0.096
16,ACGCCACT,-0.0596
17,CAGAACTA,-0.0778
18,CCCAACCC,-0.155
19,AGTGTACG,0.389
20,AGCTACCG,-0.174
21,ATCCAATA,0.00338
22,AATTAAGT,-0.0891
23,CAGATCTG,-0.286
24,CGACAAAC,0.191
25,AATTCAGA,-0.0476

row,Sequence,PBM E-score
1,CGTCGTAC,0.486
2,ACTGGAGC,-0.223
3,GGCACGAA,0.0219
4,GGAATTCA,-0.126
5,ACAAAACT,-0.078
6,CAAAAGCG,0.0125
7,TGACCTCA,-0.255
8,CACGGGGG,-0.0702
9,CTTGGCAA,-0.142
10,GGAGTACA,-0.0403
11,CAATGCTG,-0.148
12,GTTGATCA,0.0958
13,CCAAAAGG,-0.364
14,GAATAGAC,-0.124
15,ACTGATGA,-0.0167
16,GAAACCGA,0.105
17,GTGGGTGA,-0.137
18,ACATAATA,0.204
19,CCTCAATC,-0.077
20,AATCTAGG,-0.0525
21,ACAGTGTG,-0.0799
22,AGCGTGTA,0.133
23,CTGCAAGC,-0.219
24,CCAGCAGA,-0.264
25,CATCGGAG,-0.214

row,Sequence,PBM E-score
1,CTGATCAA,-0.154
2,GCAAAGAC,-0.0631
3,AACAGACG,0.145
4,AAACTTCG,0.186
5,GCATTCAC,0.0443
6,ACATCGGC,-0.033
7,AAGAATAA,-0.159
8,ACAATAGT,-0.124
9,CTACATGC,0.161
10,AAGGAGCT,-0.152
11,ACTTGGAA,-0.0639
12,ACGGCAAG,0.0243
13,CCAGACGA,0.145
14,ATCTGGCA,0.0817
15,AATGCCAC,-0.183
16,AACTCAAG,-0.248
17,ACTTGGCG,-0.126
18,GCGACCCC,0.0448
19,AGTTGGTA,0.00654
20,CGAAAGCG,0.167
21,AATGGAAC,0.108
22,AAGAATAG,0.0585
23,ACCAGAGC,-0.0456
24,GGGACATA,-0.148
25,ATCTCATG,-0.101

row,Sequence,PBM E-score
1,CCTTGTCG,-0.0134
2,AGGGCTCC,-0.349
3,CGTGTCCA,-0.0797
4,GATTAAAC,0.242
5,ATGTCGTA,0.446
6,AGAACCTG,-0.00649
7,TAACGATA,0.367
8,AGGGCGGA,-0.248
9,ACCAAGTG,-0.104
10,AGGGACTC,-0.00412
11,TGATCGAA,0.0493
12,GTCGGCGA,0.0666
13,CAGCTCAG,-0.152
14,CCTGTCCC,0.0733
15,ATATTTCC,-0.0965
16,AATGGTGT,-0.0533
17,TATGCCGA,0.147
18,ACAGCCTC,0.0305
19,CATTTTAG,-0.00461
20,CGCTCCAC,0.198
21,TCTTTACA,-0.132
22,ATTCGAAG,0.0815
